# Data reported in PubChem BioAssay AID1347165 (National Center for Advancing Translational Sciences (NCATS), 2019).
# About 5,700 (2.6%) of roughly 220,000 compounds were called active. Inconclusive means that the source gave no clear call. Such entries were picked first, then a sample of the others. Calls follow the shape of the dose curve; as a rule, active = well fitted inhibition curve with a large enough effect; inconclusive = small, poorly fitted or top-dose-only effect; inactive = no such curve, though single readings can be large or run the other way. Potencies of inconclusive entries are doubtful fits and often do not repeat.
# Target: Lysine-specific demethylase 5B (Homo sapiens) (UniProt Q9UGL1)
# Chain of UniProt Q9UGL1 (Q9UGL1 whole entry, looked up): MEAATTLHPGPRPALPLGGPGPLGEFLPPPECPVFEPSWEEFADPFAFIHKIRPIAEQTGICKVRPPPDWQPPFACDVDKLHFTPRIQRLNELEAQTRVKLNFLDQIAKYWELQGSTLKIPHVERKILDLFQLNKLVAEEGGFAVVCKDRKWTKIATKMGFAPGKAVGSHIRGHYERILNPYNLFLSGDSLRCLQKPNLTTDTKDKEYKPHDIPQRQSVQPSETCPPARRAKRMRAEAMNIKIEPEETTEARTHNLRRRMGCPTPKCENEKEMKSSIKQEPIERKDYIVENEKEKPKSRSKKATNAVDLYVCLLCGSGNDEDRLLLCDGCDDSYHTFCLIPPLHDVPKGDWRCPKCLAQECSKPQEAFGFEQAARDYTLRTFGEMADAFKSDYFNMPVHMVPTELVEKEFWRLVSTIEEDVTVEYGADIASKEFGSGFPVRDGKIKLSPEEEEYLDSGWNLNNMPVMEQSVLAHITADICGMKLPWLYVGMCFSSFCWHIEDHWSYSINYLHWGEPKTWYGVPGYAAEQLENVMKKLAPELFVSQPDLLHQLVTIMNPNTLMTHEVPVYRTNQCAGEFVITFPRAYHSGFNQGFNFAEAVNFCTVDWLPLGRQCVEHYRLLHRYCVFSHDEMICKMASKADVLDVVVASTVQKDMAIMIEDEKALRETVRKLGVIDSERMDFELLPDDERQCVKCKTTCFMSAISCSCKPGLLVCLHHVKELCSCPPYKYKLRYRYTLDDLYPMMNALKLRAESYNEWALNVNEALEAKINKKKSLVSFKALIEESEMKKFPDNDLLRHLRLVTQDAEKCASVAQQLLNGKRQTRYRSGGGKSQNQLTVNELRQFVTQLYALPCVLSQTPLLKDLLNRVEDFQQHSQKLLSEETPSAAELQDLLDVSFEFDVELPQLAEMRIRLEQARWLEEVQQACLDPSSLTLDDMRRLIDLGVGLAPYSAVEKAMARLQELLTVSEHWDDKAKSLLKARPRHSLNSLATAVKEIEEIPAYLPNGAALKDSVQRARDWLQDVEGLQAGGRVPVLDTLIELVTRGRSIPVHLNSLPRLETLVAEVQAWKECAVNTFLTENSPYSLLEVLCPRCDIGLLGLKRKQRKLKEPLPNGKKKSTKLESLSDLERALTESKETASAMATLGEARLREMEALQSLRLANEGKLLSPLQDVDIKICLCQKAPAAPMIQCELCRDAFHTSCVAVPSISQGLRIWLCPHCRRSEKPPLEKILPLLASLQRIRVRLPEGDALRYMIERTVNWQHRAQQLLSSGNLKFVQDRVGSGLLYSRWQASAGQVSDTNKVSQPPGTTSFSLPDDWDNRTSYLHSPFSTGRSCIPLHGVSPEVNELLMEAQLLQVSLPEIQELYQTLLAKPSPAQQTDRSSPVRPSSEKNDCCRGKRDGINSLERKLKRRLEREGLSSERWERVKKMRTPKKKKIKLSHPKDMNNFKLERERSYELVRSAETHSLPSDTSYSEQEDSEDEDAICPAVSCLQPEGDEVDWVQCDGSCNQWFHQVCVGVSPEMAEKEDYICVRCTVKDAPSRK
# Assay: Primary screen for KDM5B Histone Demethylases FDH-coupled qHTS; also: nearly all actives have a fitted effect of over 70% in size; as to activity change, negative = inhibition: 0% is about no effect
# Conditions: FDH-coupled NADH fluorescence (FDH is formaldehyde dehydrogenase); activity change, negative = inhibition: at 57.7 µM (top of the series) unless noted
# Method in brief: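 Here, H3K4me3 peptide (12.5 µM in substrate mix) is demethylated by KDM5BΔAP, 200 nM final, after 10 min compound exposure. Formaldehyde product is coupled through FDH (0.25 U/mL in mix) to NADH fluorescence; 30-min ΔRFU feeds dose-response curves.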
# Potency is read from the fitted curve at half-maximal effect; tags tell the direction and shape of the fitted curve.
SMILES,"activity change, negative = inhibition",Potency
CCOc1ccc(NC(=O)CCc2c(C)nc3nc(C)nn3c2C)cc1,inactive: -19.7%,
Fc1ccc(-n2ncc3c(NC4CCCCCC4)ncnc32)cc1,,"inconclusive: 39.8 µM [inhibitor, single point]"
O=C(OCc1nc2ccccc2s1)C1=NN(C2CCS(=O)(=O)C2)C(=O)CC1 (configuration not stated),inactive: 28.3%,
CC(C)Oc1cccc(-c2nc(C(=O)NCc3ccccc3)cs2)c1,,"inconclusive: 31.6 µM [inhibitor, single point]"
COc1ccc(CNC(=O)c2cnc3sc(N4CCOCC4)nn3c2=O)cc1,,"inconclusive: 1 µM [inhibitor, full curve, poor fit]"
Cc1ccc(S(=O)(=O)N2CCOCC2)cc1NC(=O)CNC1CCCC1,,"inconclusive: 2.82 µM [inhibitor, full curve, poor fit]"
CCCn1ncnc1C(C)Nc1cc(C(C)C)nc2cc(C)nn12 (configuration not stated),,"inconclusive: 28.2 µM [inhibitor, partial curve, poor fit]"
Cc1cc(Cl)ccc1NC(=O)c1cccc(NC(=O)N2CCSc3ncccc32)c1,,"inconclusive: 35.5 µM [inhibitor, partial curve, poor fit]"
COc1ccc(C(=O)NCc2csc(-c3cccs3)n2)cc1,,"inconclusive: 39.8 µM [inhibitor, partial curve, poor fit]"
O=C(CCOc1ccccc1)N(Cc1cccnc1)c1nc2c(F)cc(F)cc2s1,,"inconclusive: 28.2 µM [inhibitor, partial curve, poor fit]"
COc1ccc(-n2nc(C)c3c2NC(=O)CC3c2cccc(OC)c2OC(C)C)nn1 (configuration not stated),inactive: 15.7%,
O=C(N[C@@H]1CNC[C@H]1O)C1CCN(c2nc(-c3ccccc3)nc3c2CCC3)CC1,,"inconclusive: 31.6 µM [inhibitor, partial curve, poor fit]"
CC(=O)c1cnn(-c2cc(Nc3ccc(F)cc3)ncn2)c1C,inactive: 8.25%,
COc1ccc(-n2cnc3c2NC(=O)CC3c2cccnc2)c(OC)c1 (configuration not stated),,"inconclusive: 22.4 µM [inhibitor, partial curve, poor fit]"
Cc1ccccc1NC(=O)c1c(NC(=O)COCC(=O)O)sc2c1CCCCC2,,"inconclusive: 22.4 µM [inhibitor, single point]"
COc1ccc(CNC(=O)Cc2c[nH]c3ncc(-c4ccccc4)cc23)cc1OC,,"inconclusive: 31.6 µM [inhibitor, single point]"
Cc1ccc(NC(=O)CCCn2c(=O)c3cccn3c3ccccc32)c(Cl)c1,,"inconclusive: 22.4 µM [inhibitor, single point]"
CC(C)c1noc(CN(C)C(=O)c2cc(-c3cnn(C)c3)nc3ccccc23)n1,,active: 28.2 µM
c1csc(-c2nc(N3CCOCC3)c3ccccc3n2)c1,inactive: -8.84%,
COc1ccccc1CNC(=O)c1cc2cc3ccc(Cl)cc3nc2o1,inconclusive: -33.3% [inhibitor],
COc1ccc(CCNC(=O)CCc2c(C)nc3c(c(C)nn3-c3ccc(C)c(C)c3)c2C)cc1OC,,"inconclusive: 7.08 µM [inhibitor, partial curve, poor fit]"
COc1cccc(-c2ccc(NC(=O)C3CCCN3Cc3cnn(C)c3)cc2)c1 (configuration not stated),,"inconclusive: 39.8 µM [inhibitor, single point]"
CN(C(=O)[C@@H]1C[C@H](c2ccc(F)cc2)N([S+](=O)([O-])C2CC2)C1)c1ccccc1,inactive: -8.05% [at 86.2 µM],

SMILES,"activity change, negative = inhibition",Potency
CCn1c(SCC(=O)Nc2cccc(C(F)(F)F)c2)nnc1-c1cc2ccccc2o1,inactive: 8.55%,
CC(C)CC(=O)Nc1nnc(S(=O)(=O)N(CC(C)C)c2ccccc2)s1,inconclusive: -31.3% [inhibitor],
Cc1ccc(CNC(=O)CCC(=O)N2CC3CCCN3c3ccccc32)cc1 (configuration not stated),,"inconclusive: 8.91 µM [inhibitor, partial curve, poor fit]"
COC(=O)c1ccc(COC(=O)c2ccc(C(=O)OCc3ccc(C(=O)OC)o3)cc2)o1,inactive: 2.63%,
CCOc1ccc(NC(=O)C2CCN(C(=O)N3CC(C)Oc4ccc(Cl)cc43)CC2)cc1 (configuration not stated),inconclusive: -31.2% [inhibitor],
CN1C[C@H](C(=O)Nc2cccc(Cl)c2)C[C@H]1c1cccc(C(F)(F)F)c1,,"inconclusive: 7.08 µM [inhibitor, full curve]"
OCCNc1cc(N2CCCC(CO)(Cc3ccccc3F)C2)ncn1 (configuration not stated),inactive: 6.09%,
Cc1ccc(-n2cccc2CC(=O)NCc2ccc3c(c2)OCO3)cc1,inactive: -18.6%,
COc1cc(-c2cc3n(C)c(C)c(CCC(=O)O)c(=O)n3n2)cc(OC)c1OC,,"inconclusive: 44.7 µM [inhibitor, single point]"
COc1cccc(NC(=O)N2CCN(c3nc(C)cc(Nc4ccc(C)cc4)n3)CC2)c1,,"inconclusive: 31.6 µM [inhibitor, partial curve, poor fit]"
Cc1ccc(-n2cccc2CC(=O)NC2CCCCC2)cc1,inactive: 7.53%,
CC1(C)[C@H](Cc2cc(CCO)on2)C[C@@H]1NCc1ccccn1,inactive: -15.7% [at 86.2 µM],
CCc1ccc(C(O)(C(C)C)C(CN2CCOCC2)c2ccccc2)cc1 (configuration not stated),,"inconclusive: 39.8 µM [inhibitor, single point]"
CC(=O)[C@@H]1SC(N)=C(C#N)[C@H]1c1cccs1,,"inconclusive: 39.8 µM [inhibitor, single point]"
CC(C)c1nnc(SCC(=O)N(C)CCOc2ccc(Br)cc2)n1Cc1ccco1,inactive: -6.07%,
O=C(NCc1ccc(F)cc1F)c1noc(-c2ccc3c(c2)OCO3)n1,,"inconclusive: 31.6 µM [inhibitor, single point]"
COc1ccccc1Nc1ccnc(N2CC3CCC(C2)N3CC(F)(F)F)n1,,"inconclusive: 63.1 µM [inhibitor, partial curve, poor fit]"
O=C(C1CC(=O)N(C2CCCC2)C1)N1CCN(c2ccc(Cl)cn2)CC1 (configuration not stated),,active: 31.6 µM
COc1ccc(-c2noc([C@@H]3Cc4nc[nH]c4CN3Cc3ccc(C)cc3)n2)cc1,,"inconclusive: 35.5 µM [inhibitor, single point]"
CCC1CCCCN1C(=O)Cn1c(=O)n(-c2ccc(F)c(C)c2)c(=O)c2sccc21 (configuration not stated),,"inconclusive: 39.8 µM [inhibitor, single point]"
COCCOc1ccc2c(n1)CCN(C(=O)c1ccco1)C2,,"inconclusive: 14.1 µM [inhibitor, partial curve, poor fit]"
Cc1cc(C)c(S(=O)(=O)NCCc2cc3ccc(C)c(C)c3[nH]c2=O)c(C)c1,,"inconclusive: 20 µM [inhibitor, partial curve, poor fit]"
COc1cc(OC)c2c(C)c(CC(=O)Nc3nc4ccccc4[nH]3)c(=O)oc2c1,,"inconclusive: 1.78 µM [inhibitor, partial curve, poor fit]"

SMILES,"activity change, negative = inhibition",Potency
O=c1c2sc3ccccc3c2n(Cc2cccc(Cl)c2)c(=O)n1Cc1ccco1,,"inconclusive: 15.8 µM [inhibitor, partial curve, poor fit]"
CCOCCCNC(=S)N1CCc2cc(OC)c(OC)cc2C1,,"inconclusive: 22.4 µM [inhibitor, single point]"
COc1ccc(-c2csc(N3N=C(C)CC3c3cc(OC)c(OC)c(OC)c3)n2)cc1 (configuration not stated),,"inconclusive: 31.6 µM [inhibitor, partial curve, poor fit]"
CN1CC(=O)N(C2CCCNC2)Cc2c(NCCCO)ncnc21 (configuration not stated),,"inconclusive: 79.4 µM [inhibitor, partial curve]"
Cc1cccc(CN2CCc3c(sc4ncnc(N(C)C)c34)C2)c1,,"inconclusive: 25.1 µM [inhibitor, partial curve, poor fit]"
CNC(=O)[C@@H](C1CCCCC1)N1CCC[C@H]1C(=O)N1CCOCC1,,"inconclusive: 39.8 µM [inhibitor, partial curve, poor fit]"
O=C(c1cccc(C(F)(F)F)c1)N1CCC2(CC1)CC(O)CCO2 (configuration not stated),inactive: 25.6%,
Cn1cc(C(=O)N2CCC3(CC2)NCCc2c3[nH]c3ccccc23)cn1,,"inconclusive: 35.5 µM [inhibitor, single point]"
O=C(C1CC1)N1CC[C@H]2COC(=O)N2c2ccccc2C1,inactive: 26.1% [at 115 µM],
COc1ccc(OCc2ccc(-c3nc(C#N)c(N4CCCCC4)o3)o2)cc1,,"inconclusive: 31.6 µM [inhibitor, partial curve, poor fit]"
COc1ccc(Cc2nnc(SCC(=O)Nc3ccccc3Cl)n2C)cc1,inactive: -4.4%,
CCCN(CC(F)(F)F)C(=O)CNC(=O)Cc1ccccc1,inactive: 5.62%,
CCc1cc(C(=O)Cc2csc(-c3ccccc3)n2)c(O)cc1O,inactive: -16.4%,
Cc1ccc(C(=O)N2CCc3c(nc4cc(-c5ccccc5)[nH]n4c3=O)C2)cn1,,active: 25.1 µM
CCC(C)NC(=O)C1=CC(c2cccs2)=NS(=O)(=O)N1C (configuration not stated),,"inconclusive: 25.1 µM [inhibitor, single point]"
CN1NC2(CCCCC2)NC1=S,,"inconclusive: 39.8 µM [inhibitor, single point]"
CCCSc1ncc(Cl)c(C(=O)N(Cc2ccc(Cl)cc2)Cc2ccco2)n1,,"inconclusive: 17.8 µM [inhibitor, partial curve, poor fit]"
CCOc1ccc(-c2nc(C#N)c(NCCCN(CC)CC)o2)cc1,,"inconclusive: 1.78 µM [inhibitor, partial curve, poor fit]"
CCN(C(=O)Cn1cc(C(=O)OC)c2ccccc21)c1ccccc1,inactive: 12.2%,
CCc1ccccc1Nc1sc(C(=O)c2cccc(OC)c2)c(N)c1S(=O)(=O)c1ccccc1,,"inconclusive: 14.1 µM [inhibitor, partial curve, poor fit]"
COc1ccc(-n2c(=S)[nH]c3cc(C(=O)Nc4ccccc4OC)ccc3c2=O)c(OC)c1,inactive: 4.45%,
